# Measurements: PubChem BioAssay AID485364 (National Center for Advancing Translational Sciences (NCATS), 2010)
# About 11,000 (3.1%) of roughly 360,000 compounds were called active. The inconclusive results got no clear call from the source; some entries with a clear call stand among them for comparison. Calls come from the whole dose curve; as a rule, active = well fitted inhibition curve with a large enough effect; inconclusive = small, poorly fitted or top-dose-only effect; inactive = no such curve, though single readings can be large or run the other way. No potency is given beside an inconclusive call; the fits are too rough.
# Target: Schistosoma mansoni thioredoxin glutathione reductase (TGR) (UniProt Q962Y6)
# Assay: qHTS Assay for the Inhibitors of Schistosoma Mansoni Peroxiredoxins; note: nearly all actives have a fitted effect of over 60% in size
# Settings: purified TGR, DTNB reduction, TNB absorbance 405 nm; series mostly up to 114 µM
# Method in brief: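 TGR 20 nM + NADPH 100 uM (dispensed conc.), cpd preinc 15 min RT; start with NADPH (500 uM addition) then DTNB (15 mM addition). Kinetic TNB absorbance, 405 nm filter. Four-parameter Hill fit across titration.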
# Potency is the fitted concentration of half-maximal effect; tags give direction and shape of the fitted curve.
row,SMILES,Potency
1,O=C1CC(N(Cc2ccco2)C(=O)Nc2ccc(F)cc2)C(=O)N1c1ccc(F)cc1 (configuration not stated),"inconclusive [inhibitor, partial curve]"
2,CCc1cc(C(=O)NCC(c2ccco2)N2CCCCC2)sc1C (configuration not stated),inactive
3,COc1ccc(OC)c(C(=O)COC(=O)c2ccccc2O)c1,inactive
4,O=C(Nc1ncc([N+](=O)[O-])s1)c1ccccc1Br,"inconclusive [inhibitor, full curve]"
5,O=C(O)c1ccccc1CSc1nc2ccccc2o1,inactive
6,Cc1ccc(-c2nnc(Nc3ccccc3)c3ccccc23)cc1S(=O)(=O)N1CCOCC1,inactive
7,CCNC(=S)N/N=C(\C)c1ccco1,"inconclusive [inhibitor, partial curve, poor fit]"
8,COC(=O)c1ccccc1NC(=O)C1CCN(S(C)(=O)=O)CC1,inactive
9,Cc1cc(N2CCN(c3ccc(F)cc3)CC2)n2nc(-c3ccc(Cl)cc3)nc2n1,inactive
10,CCc1ccccc1NC(=O)CSc1nnc(-c2ccc(OC)cc2)s1,inactive
11,Cc1ccc(C)c(NC(=O)CN(C)C(=O)c2ccc(-c3ccc(Cl)cc3)o2)c1,"inconclusive [inhibitor, partial curve]"
12,CCOc1ccc(/C=C2/SC(=O)NC2=S)cc1,active: 44.7 µM
13,Cc1cc(C)cc(NC(=S)NCc2cccnc2)c1,"inconclusive [inhibitor, partial curve]"
14,Cc1cc(C)c(C(=O)COC(=O)Cn2c(C)csc2=O)cc1C,inactive
15,Cc1nn(-c2ccccc2)c(Cl)c1CN(C(=O)CCl)c1cccc2ccccc12,"inconclusive [inhibitor, full curve]"
16,CC(C)(C)NC(=O)C(=O)NC(=O)c1c(F)cccc1Cl,inactive
17,C#CCOCCOCCOCCNc1nc(N2CCN(C(=O)[C@H](CCC(=O)O)n3cc(C(N)Cc4ccc(O)cc4)nn3)CC2)nc(N2CCN(C(=O)[C@H](CCC(=O)O)n3cc(C(N)Cc4ccc(O)cc4)nn3)CC2)n1 (some centres not stated),"inconclusive [inhibitor, partial curve]"
18,S=C(NCCc1ccccc1)N1CCN(C(c2ccccc2)c2ccccc2)CC1,"inconclusive [inhibitor, single point]"
19,CCC[N+](CC#Cc1ccccc1)(CCC)CC(=O)OC,"inconclusive [inhibitor, single point]"
20,CCCOc1ccc(C(=O)Nc2ccc(N3CCN(C(C)=O)CC3)cc2)cc1,inactive
21,Cc1cc(C(=O)CCC(=O)Nc2ncccc2C)c(C)s1,"inconclusive [inhibitor, partial curve]"
22,CCSc1ncc(Cl)c(C(=O)Nc2c(C(=O)Nc3ccccc3)oc3ccccc23)n1,inactive
23,Cc1nnc(SCC(=O)Nc2ccc(O)cc2)c2ccccc12,inactive
24,O=C(O)c1cc(N/N=C/c2c(O)ccc3ccccc23)ccc1Cl,"inconclusive [inhibitor, partial curve, poor fit]"

row,SMILES,Potency
1,O=C(NCC(c1ccco1)N1CCOCC1)c1ccc(F)c(F)c1 (configuration not stated),"inconclusive [inhibitor, partial curve]"
2,O=C(NC(=S)Nc1ccc(N2CCOCC2)cc1)c1ccc2c(c1)OCCO2,"inconclusive [inhibitor, partial curve, poor fit]"
3,O=C(CSc1nnc(COc2ccc(Cl)cc2)n1Cc1ccco1)N1CCNC1=O,"inconclusive [inhibitor, partial curve]"
4,CC(c1nnc(SCC(=O)N2CC(=O)Nc3ccccc32)n1Cc1ccccc1)N(C)C (configuration not stated),"inconclusive [inhibitor, partial curve]"
5,O=C(CSc1nc2ccccc2c(=O)[nH]1)Nc1cccc([N+](=O)[O-])c1,inactive
6,O=C(COc1ccc(/C=N/NC(=O)c2cc3ccccc3o2)cc1Br)Nc1ccccc1,inactive
7,O=C(O)CSC(=S)N1CCCC1,"inconclusive [inhibitor, partial curve]"
8,COc1ccccc1NC(=O)c1csc2c1CCC(C)C2 (configuration not stated),active: 50.1 µM
9,O=C(NN1C(=O)NC2(CCCCC2)C1=O)c1ccc(-c2ccc([N+](=O)[O-])cc2)o1,"inconclusive [inhibitor, partial curve, poor fit]"
10,C[C@]12CC[C@@H]3c4ccc(O)cc4CC[C@H]3[C@@H]1C[C@@H](O)[C@@H]2O[C@@H]1O[C@H](C(=O)O)[C@@H](O)[C@H](O)[C@H]1O,"inconclusive [inhibitor, partial curve]"
11,CCCCn1nnc(NC(=S)NC(=O)c2cccs2)n1,"inconclusive [inhibitor, partial curve]"
12,Cc1ccc(-c2cn(CCC(=O)O)c(-c3ccc(Cl)nc3)n2)cc1,inactive
13,CC(C)(C)c1nc2ccccc2c2nnc(SCC(=O)NCc3ccco3)n12,"inconclusive [inhibitor, partial curve]"
14,N#Cc1c(N)n(CCOC(=O)c2cccc(Br)c2)c2nc3ccccc3nc12,inactive
15,O=c1[nH]c(C(Cl)Cl)nc2sc3c(c12)CCN(Cc1ccccc1)C3,"inconclusive [inhibitor, partial curve]"
16,O=C(c1ccc(Br)o1)N1CCN(Cc2ccccc2Cl)CC1,"inconclusive [inhibitor, full curve, poor fit]"
17,Cc1nc(SCC(=O)c2ccccc2)c(C#N)c(-c2ccco2)c1C(=O)NCc1ccco1,"inconclusive [inhibitor, single point]"
18,CCn1c(SCC(=O)N2CCCc3ccccc32)nnc1-c1ccco1,"inconclusive [inhibitor, partial curve]"
19,CCC(COC)Oc1cc(NCc2ccccc2)c2ncn(C(C)C)c2c1 (configuration not stated),active: 28.2 µM
20,CC(=O)Nc1cccc(NC(=O)c2ccco2)c1,"inconclusive [inhibitor, partial curve]"
21,Cc1csc(NC(=O)C2C3C=CC(O3)C2C(=O)O)n1 (configuration not stated),"inconclusive [inhibitor, partial curve, poor fit]"
22,COc1cc(/C=C/C(=O)c2ccc3c(c2)OCCO3)cc(Br)c1OCC(=O)N(C)C,inactive
23,Cc1cc2ccccc2c(=O)n1CC(=O)NCc1ccco1,"inconclusive [inhibitor, partial curve]"
24,COc1ccccc1NC(=O)C1=C(C)NC(SCC(=O)c2ccc(C)cc2)=C(C#N)C1c1ccco1 (configuration not stated),"inconclusive [inhibitor, partial curve]"

row,SMILES,Potency
1,Cn1cc(CN2CCc3ccccc3C2)c2ccccc21,"inconclusive [inhibitor, partial curve]"
2,O=C(NCC(=O)N(Cc1cccs1)C(C(=O)NC1CCCC1)c1ccncc1)c1ccco1 (configuration not stated),inactive
3,O=C(O)CN1CCN(Cc2ccc(F)cc2Cl)C1=O,active: 8.91 µM
4,CCC(=NCCCN1CCOCC1)c1c(O)n(Cc2ccccc2)c(=O)[nH]c1=O,"inconclusive [inhibitor, partial curve]"
5,Cc1ccc(OCCn2cccc2/C=C2/C(=O)NC(=O)N(Cc3ccco3)C2=O)cc1,active: 14.1 µM
6,C=CCn1c(SCc2ccccc2)nc2scc(-c3ccc(C)o3)c2c1=O,"inconclusive [inhibitor, single point]"
7,CC(=O)c1cccc(S(=O)(=O)N2CCCC(c3nc(-c4ccc(C)o4)no3)C2)c1 (configuration not stated),active: 50.1 µM
8,CCCCC(=O)Nc1nnc(-c2ccco2)o1,"inconclusive [inhibitor, single point]"
9,CC1=NN(c2ccc(C)cc2)C(=O)/C1=C/c1ccc(-c2cc([N+](=O)[O-])ccc2O)o1,"inconclusive [inhibitor, partial curve]"
10,Nc1nc(SCC(=O)Nc2ccc(OCc3ccccc3)cc2)n[nH]1,inactive
11,Cc1ccccc1OCC(=O)OCC(=O)Nc1ccc2c(c1)OCCO2,"inconclusive [inhibitor, partial curve]"
12,O=C(NCc1ccco1)c1ccc([N+](=O)[O-])o1,active: 28.2 µM
13,Cc1cccc(/C=N\NC(=O)c2csnn2)c1,inactive
14,CCOC(=O)C1=C(C)Nc2nc(=S)[nH]n2C1c1ccc(Cl)cc1 (configuration not stated),"inconclusive [inhibitor, full curve]"
15,CCc1ccc(S(=O)(=O)/N=C2\C=CC(=O)c3ccccc32)cc1,active: 8.91 µM
16,N#CC(Sc1ccccn1)c1ccc(Cl)cc1Cl (configuration not stated),"inconclusive [inhibitor, partial curve, poor fit]"
17,COc1ccccc1NC(=S)NC(=O)C1CC1,"inconclusive [inhibitor, partial curve]"
18,O=C(COc1ccccc1Cl)Nc1ccc(C(=O)O)cc1NC(=O)COc1ccccc1Cl,inactive
19,Cc1ccc(N(CC(=O)N/N=C/c2ccco2)S(=O)(=O)c2ccccc2)cc1,active: 25.1 µM
20,COc1ccc(C2=NN3C(C2)c2ccccc2OC32C(=O)N(C)c3ccccc32)cc1 (configuration not stated),active: 39.8 µM
21,COc1nnc(-c2ccc(N3CCOCC3)c(NC(=O)c3ccco3)c2)c2ccccc12,"inconclusive [inhibitor, full curve, poor fit]"
22,Cc1ccc(-n2sc3ccccc3c2=O)cc1,"inconclusive [inhibitor, partial curve]"
23,O=C(NCC#CCOCc1ccccc1)c1ccccc1,active: 7.08 µM
24,CCCCC1=CC2=CC(=O)C(C)(OC(=O)CCc3ccccc3)C(=O)C2=CO1 (configuration not stated),active: 44.7 µM
